The whole screen tested about 310,000 compounds, of which about 2,200 (0.71%) showed an effect of 50% or more. Effects have a minus sign here. Some of the results follow.
What follows are molecules tested against human ether-à-go-go-related gene (hERG) potassium channel (human, UniProt Q12809) (assay: primary screen, population patch clamp on CHO cells stably expressing hERG).
Sequence of human ether-à-go-go-related gene (hERG) potassium channel (Q12809 whole entry, looked up): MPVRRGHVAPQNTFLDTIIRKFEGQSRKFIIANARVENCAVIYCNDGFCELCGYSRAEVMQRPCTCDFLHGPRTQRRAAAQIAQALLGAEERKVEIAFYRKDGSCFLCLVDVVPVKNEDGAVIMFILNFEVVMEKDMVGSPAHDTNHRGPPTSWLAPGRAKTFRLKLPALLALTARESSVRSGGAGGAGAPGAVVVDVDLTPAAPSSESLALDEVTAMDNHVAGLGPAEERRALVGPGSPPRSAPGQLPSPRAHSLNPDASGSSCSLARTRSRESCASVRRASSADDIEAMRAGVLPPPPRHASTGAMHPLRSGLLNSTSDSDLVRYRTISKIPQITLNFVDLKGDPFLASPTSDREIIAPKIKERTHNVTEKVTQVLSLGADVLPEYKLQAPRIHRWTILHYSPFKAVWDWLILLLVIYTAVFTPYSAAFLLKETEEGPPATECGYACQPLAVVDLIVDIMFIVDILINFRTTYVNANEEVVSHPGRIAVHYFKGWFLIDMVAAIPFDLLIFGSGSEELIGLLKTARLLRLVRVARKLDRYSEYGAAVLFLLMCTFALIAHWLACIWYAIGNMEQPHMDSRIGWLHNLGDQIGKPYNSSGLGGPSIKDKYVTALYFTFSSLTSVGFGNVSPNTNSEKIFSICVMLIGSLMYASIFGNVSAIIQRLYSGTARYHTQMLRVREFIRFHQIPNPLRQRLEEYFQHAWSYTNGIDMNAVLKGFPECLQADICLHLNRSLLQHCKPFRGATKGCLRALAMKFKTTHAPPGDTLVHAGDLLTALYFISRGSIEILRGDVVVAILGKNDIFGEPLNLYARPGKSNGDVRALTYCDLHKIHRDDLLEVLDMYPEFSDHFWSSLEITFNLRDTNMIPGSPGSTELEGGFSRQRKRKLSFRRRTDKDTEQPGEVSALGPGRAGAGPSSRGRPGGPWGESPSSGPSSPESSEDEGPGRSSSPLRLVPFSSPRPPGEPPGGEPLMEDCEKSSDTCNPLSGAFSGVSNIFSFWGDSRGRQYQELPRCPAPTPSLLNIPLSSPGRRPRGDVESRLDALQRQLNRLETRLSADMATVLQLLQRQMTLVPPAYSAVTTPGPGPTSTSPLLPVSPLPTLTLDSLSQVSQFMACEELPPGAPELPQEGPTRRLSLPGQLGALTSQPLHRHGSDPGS

Structure (SMILES) | hERG current change (%, negative = inhibition) at 1uM [%]
CCc1ccc(-c2csc(NC(=O)Oc3ccccc3)n2)cc1 | 11.8
CC(C)COc1ccc(C(=O)Nc2cc(S(=O)(=O)N3CCOCC3)ccc2N2CCCC2)cc1 | 1.7
Cc1sc2nc(CC(=O)NN)[nH]c(=O)c2c1C | 9.92
O=C(CCCc1ccccc1)NCCc1ccc(F)cc1 | 14.6
S=C(Nc1ccc(Cl)cc1)NN1CCOCC1 | 5.15
Cc1ccc(S(=O)(=O)N2CCCCC2)cc1NC(=O)Cc1c[nH]c2ccccc12 | -9.89
Cc1csc(NC(=O)c2cc(-c3ccncc3)nc3ccccc23)n1 | 3.83
COc1ccc(NC(=O)c2cn(CCC#N)nc2-c2ccccc2)cc1 | 5.29
O=C(NNC(=O)c1ccccc1Cl)c1cccs1 | 10.6
Cc1cc(C)n(S(=O)(=O)Cc2ccccc2)n1 | 8.62
O=C(C[n+]1ccccc1)N/N=C/c1ccc(O)cc1.[Cl-] | 12.9
CC(=O)c1ccc(NC(=O)c2ccc3c(=O)n4c(nc3c2)CCCCC4)cc1 | 8.35
O=S(=O)(c1ccccc1F)N1CCN(CCc2ccccc2)CC1 | 12.2
COc1cc(CCC(=O)NCc2ccc(S(N)(=O)=O)cc2)cc(OC)c1OC | 16.1
CC(C)(C)OC(=O)N1CCN(C(=O)c2[nH]cnc2C(=O)N[C@@H](Cc2ccccc2)C(=O)OCc2ccccc2)CC1 | 4.62
CCOC(=O)c1c(C)nc2sc3c(=O)n(-c4ccc(OC)cc4)cnc3c2c1-c1ccc(OC)cc1 | 12
Cc1nc(CN2CCC(c3ccccc3)CC2)cc(=O)[nH]1 | 17.1
CCOC(=O)N1CCC(N(CCN(C)C)C(=S)Nc2ccccc2C)CC1 | 11.2
CCOc1ccc(-n2c(SCC(N)=O)nnc2-c2ccco2)cc1 | 9.37

Structure (SMILES) | hERG current change (%, negative = inhibition) at 1uM [%]
CC(C)c1nnc(NC(=O)c2cccnc2)s1 | 13.7
O=C(CN1CCCC1)N1c2ccccc2Sc2ccccc21 | 1.44
COc1ccc(C(=O)NC(C)c2ccncc2)cc1S(=O)(=O)N(C)Cc1ccccc1 (stereo not drawn) | -3.57
CC(C(=O)N1c2ccccc2CCc2ccccc21)n1nnc(-c2ccc(N(C)C)cc2)n1 (stereo not drawn) | 12.9
COc1ccc(CCC(=O)Nc2nc(C)c(C(=O)N(C)C)s2)cc1 | -3.88
COc1cc(/C=N/N2CCN(C3c4ccccc4-c4ccccc43)CC2)ccc1O | 9.05
O=[N+]([O-])c1ccc(C[n+]2cc(-c3ccccc3)n3c2CCCCC3)cc1.[Br-] | -8.73
COC(=O)C1=C(c2ccc(S(C)(=O)=O)cc2)C[C@@H]2CC[C@H]1N2C | 13
CC1(C)CC(C)(O)P(=O)(c2ccccc2)O1 (stereo not drawn) | 2.8
O=C(CCc1ccccc1)Nc1ccc(S(=O)(=O)Nc2nccs2)cc1 | 2.47
O=C(NC1CCCCC1)C1CCN(c2ncccn2)CC1 | 8.52
NC[C@H](Cc1ccccc1)NCCCCC1CCCCC1 | 17.5
CC1CCCCN1C(=O)CSc1nnc2c(n1)[nH]c1ccc(F)cc12 (stereo not drawn) | 18.1
CN(C)S(=O)(=O)c1ccc(Cl)c(NC(=O)CN2CCCCCC2)c1 | -3.33
O=S(=O)(NC1CCCC1)c1cc(F)ccc1F | -0.891
O=C1CCCN1c1ccc(Br)cc1 | 12.2
CC(=O)Nc1c2c(nn1-c1ccc(F)cc1)CSC2 | 11.4
N#Cc1c2n(c3c(=O)n(Cc4ccc(Cl)cc4)cnc13)CCCCC2 | -1.35
Br.CC1=CS(=O)(=O)CC1Sc1nc2ccccc2[nH]1 (stereo not drawn) | 0.45

Structure (SMILES) | hERG current change (%, negative = inhibition) at 1uM [%]
O=C(CC1SC(N2CCCCC2)=NC1=O)Nc1ccc(C(=O)O)cc1 (stereo not drawn) | 14.5
Cc1ccc(NC2=NCCC2)cc1Cl | 5.39
CCN1CCc2c(sc(NC(=O)c3cc4ccccc4cc3OC)c2C(N)=O)C1.Cl | 10.2
C/C(=C/C=C/[C@@H](C)C(=O)O)[C@H]1CN[C@H](C(=O)O)[C@H]1CC(=O)O | 2.33
Cc1cc(C)nc(/N=C(\NC(=O)C(C)(C)C)Nc2ccccc2)n1 | 9.72
CCN1CCN(C(=O)CN(CC)S(=O)(=O)c2ccc(Cl)cc2)CC1 | -3.6
COc1cc(O)c(C(CC(=O)N2CCOCC2)c2ccc3c(c2)OCO3)c(OC)c1 (stereo not drawn) | 12.9
O=C(NN=C1CCCCCC1)c1cn(-c2ccccc2)nc1-c1ccccc1 | 5.2
CC(=O)[C@H]1[C@H](CCc2ccccc2)NC(=O)N(Cc2ccccc2)[C@@H]1C | 2.97
CCCCN(CC)C(=O)c1cc2cc3ccc(Cl)cc3nc2o1 | 9.84
N#C/C(=C\c1ccccc1)c1n[nH]c(Cn2cncn2)n1 | 7.16
Cc1nn(CC(O)Cn2cnc3c2c(=O)n(C)c(=O)n3C)c(C)c1Br (stereo not drawn) | 2.13
CC(=O)n1c2c(c3ccccc31)OC(N)=C(C#N)C2c1ccc(C(C)C)cc1 (stereo not drawn) | 6.84
CC1(C)Oc2ccc3ccc(=O)oc3c2/C(=C/O)C1=O | 10.2
O=C(O)CN1C(=O)/C(=C2\SC(=S)N(C(Cc3ccccc3)C(=O)O)C2=O)c2ccccc21 (stereo not drawn) | 8.47
Cc1ccccc1C1=NCC(=O)N(CC(=O)NCc2ccco2)c2sc3c(c21)CCCC3 | -1.4
N#Cc1c(N2CCCC2)ccc(Br)c1Cl | 16.2
Cc1cccc(NC(=O)C2CCN(C(=O)N3CCOc4ccccc43)CC2)c1C | 11.1
COc1ccc(CCNC(=O)c2cc(-c3ccccn3)nc3ccccc23)cc1 | 2.16

— paper PMC4336329 (PLoS ONE, 2015)
